# According to the supplement of paper PMC8728848:
# The other results are listed elsewhere or left out.
# Legend:
# Test in all cases: glycan array binding signal (z-score within array); higher = stronger binding
# Settings in all cases: glycan notation: IUPAC condensed, linker removed
# GalNAc(b1-4)GlcNAc = target: GalNAc(b1-4)GlcNAc
# Summary of the method: (§1)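 Glycan array data came from 3228 arrays in the Consortium for Functional Glycomics database, and only arrays with an available protein sequence were kept. Glycan names were put into IUPAC-condensed notation, and columns mapping to the same glycan were averaged. The binding signal is a within-array Z-score, averaged across arrays of one protein sequence run at different concentrations or buffers and across linkers. A negative Z-score can be read as non-binding.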
# [1] = target: GalNAc(b1-4)GlcNAc(b1-2)Man
# Summary of the method: as §1
# [2] = target: GalNAc(b1-4)GlcNAc(b1-2)Man(a1-3)[GalNAc(b1-4)GlcNAc(b1-2)Man(a1-6)]Man(b1-4)GlcNAc(b1-4)GlcNAc
# Summary of the method: as §1
# [3] = target: GalNAc(b1-4)GlcNAc(b1-3)GalNAc(b1-4)GlcNAc
# Summary of the method: as §1
# GalNAc(b1-4)GlcNAc6S = target: GalNAc(b1-4)GlcNAc6S
# Summary of the method: as §1
# GalNAc(b1-6)GalNAc = target: GalNAc(b1-6)GalNAc
# Summary of the method: as §1
# GalNAc3S(b1-4)GlcNAc = target: GalNAc3S(b1-4)GlcNAc
# Summary of the method: as §1
# GalNAc3S(b1-4)GlcNAc3S = target: GalNAc3S(b1-4)GlcNAc3S
# Summary of the method: as §1
# [4] = target: GalNAc3S(b1-4)[Fuc(a1-3)]GlcNAc
# Summary of the method: as §1
# GalNAc4S6S(b1-4)GlcNAc = target: GalNAc4S6S(b1-4)GlcNAc
# Summary of the method: as §1
# GalNAc6S(b1-4)GlcNAc = target: GalNAc6S(b1-4)GlcNAc
# Summary of the method: as §1
# Glc(a1-4)Glc = target: Glc(a1-4)Glc
# Summary of the method: as §1
# [5] = target: Glc(a1-4)Glc(a1-4)Glc(a1-4)Glc
# Summary of the method: as §1
# Glc(a1-6)Glc(a1-6)Glc = target: Glc(a1-6)Glc(a1-6)Glc
# Summary of the method: as §1
# [6] = target: Glc(a1-6)Glc(a1-6)Glc(a1-6)Glc
# Summary of the method: as §1
# Glc(b1-4)Glc = target: Glc(b1-4)Glc
# Summary of the method: as §1
# Glc(b1-6)Glc = target: Glc(b1-6)Glc
# Summary of the method: as §1
# GlcA(b1-3)Gal = target: GlcA(b1-3)Gal
# Summary of the method: as §1
# GlcA(b1-3)GlcNAc = target: GlcA(b1-3)GlcNAc
# Summary of the method: as §1
# GlcA(b1-6)Gal = target: GlcA(b1-6)Gal
# Summary of the method: as §1
# [7] = target: GlcA3S(b1-3)Gal(b1-4)GlcNAc(b1-2)Man
# Summary of the method: as §1
# [8] = target: GlcA3S(b1-3)Gal(b1-4)GlcNAc(b1-3)Gal(b1-4)Glc
# Summary of the method: as §1
# [9] = target: GlcNAc(a1-3)Gal(b1-4)GlcNAc
# Summary of the method: as §1
# [10] = target: GlcNAc(a1-4)Gal(b1-3)GlcNAc
# Summary of the method: as §1
# [11] = target: GlcNAc(a1-4)Gal(b1-4)GalNAc
# Summary of the method: as §1
# [12] = target: GlcNAc(a1-4)Gal(b1-4)GlcNAc
# Summary of the method: as §1
# [13] = target: GlcNAc(a1-4)Gal(b1-4)GlcNAc(b1-3)Gal(b1-4)Glc
# Summary of the method: as §1
# [14] = target: GlcNAc(a1-4)Gal(b1-4)GlcNAc(b1-3)Gal(b1-4)GlcNAc
# Summary of the method: as §1
# [15] = target: GlcNAc(a1-4)Gal(b1-4)GlcNAc(b1-3)Gal(b1-4)GlcNAc(b1-3)Gal(b1-4)GlcNAc
# Summary of the method: as §1
# [16] = target: GlcNAc(a1-4)Gal(b1-4)GlcNAc(b1-3)Gal(b1-4)[Fuc(a1-3)]GlcNAc(b1-3)Gal(b1-4)[Fuc(a1-3)]GlcNAc
# Summary of the method: as §1
# [17] = target: GlcNAc(a1-6)Gal(b1-4)GlcNAc
# Summary of the method: as §1
# [18] = target: GlcNAc(b1-2)Gal(b1-3)GalNAc
# Summary of the method: as §1
# [19] = target: GlcNAc(b1-2)Man(a1-3)[GlcNAc(b1-2)Man(a1-6)]Man(b1-4)GlcNAc(b1-4)GlcNAc
# Summary of the method: as §1
# [20] = target: GlcNAc(b1-2)Man(a1-3)[GlcNAc(b1-2)Man(a1-6)]Man(b1-4)GlcNAc(b1-4)[Fuc(a1-6)]GlcNAc
# Summary of the method: as §1
# [21] = target: GlcNAc(b1-2)Man(a1-3)[GlcNAc(b1-4)][GlcNAc(b1-2)Man(a1-6)]Man(b1-4)GlcNAc(b1-4)GlcNAc
# Summary of the method: as §1
# [22] = target: GlcNAc(b1-2)Man(a1-3)[GlcNAc(b1-4)][GlcNAc(b1-2)Man(a1-6)]Man(b1-4)GlcNAc(b1-4)[Fuc(a1-6)]GlcNAc
# Summary of the method: as §1
# [23] = target: GlcNAc(b1-2)[GlcNAc(b1-4)]Man(a1-3)[GlcNAc(b1-2)Man(a1-6)]Man(b1-4)GlcNAc(b1-4)GlcNAc
# Summary of the method: as §1
# [24] = target: GlcNAc(b1-2)[GlcNAc(b1-4)]Man(a1-3)[GlcNAc(b1-4)][GlcNAc(b1-2)Man(a1-6)]Man(b1-4)GlcNAc(b1-4)GlcNAc
# Summary of the method: as §1
# [25] = target: GlcNAc(b1-2)[GlcNAc(b1-4)]Man(a1-3)[GlcNAc(b1-4)][GlcNAc(b1-2)[GlcNAc(b1-6)]Man(a1-6)]Man(b1-4)GlcNAc(b1-4)GlcNAc
# Summary of the method: as §1
# [26] = target: GlcNAc(b1-2)[GlcNAc(b1-4)]Man(a1-3)[GlcNAc(b1-4)][GlcNAc(b1-2)[GlcNAc(b1-6)]Man(a1-6)]Man(b1-4)GlcNAc(b1-4)[Fuc(a1-6)]GlcNAc
# Summary of the method: as §1
# [27] = target: GlcNAc(b1-2)[GlcNAc(b1-6)]Man(a1-6)[GlcNAc(b1-2)Man(a1-3)]Man(b1-4)GlcNAc(b1-4)GlcNAc
# Summary of the method: as §1
# [28] = target: GlcNAc(b1-2)[GlcNAc(b1-6)]Man(a1-6)[GlcNAc(b1-2)Man(a1-3)]Man(b1-4)GlcNAc(b1-4)[Fuc(a1-6)]GlcNAc
# Summary of the method: as §1
# [29] = target: GlcNAc(b1-2)[GlcNAc(b1-6)]Man(a1-6)[GlcNAc(b1-4)][GlcNAc(b1-2)Man(a1-3)]Man(b1-4)GlcNAc(b1-4)GlcNAc
# Summary of the method: as §1
# GlcNAc(b1-3)Fuc = target: GlcNAc(b1-3)Fuc
# Summary of the method: as §1
# GlcNAc(b1-3)Gal = target: GlcNAc(b1-3)Gal
# Summary of the method: as §1
binder,measurement,setting,value
AFCNVH (Aspergillus fumigatus) (protein) MSLRGFHTTCDTIVLKDKHILSSRCKRPDGTYSFSEIDLNDCLGNNNGKFVWGGESFVDSASQVNLALEGGEGRPMLHAQLNDWHGSVQSASVNLGECIQNEAGGLEYMHC,glycan array binding signal (z-score),GalNAc(b1-4)GlcNAc,2.36
same,glycan array binding signal (z-score),[1],4.18
same,glycan array binding signal (z-score),[2],4.08
same,glycan array binding signal (z-score),[3],2.66
same,glycan array binding signal (z-score),GalNAc(b1-4)GlcNAc6S,1.24
same,glycan array binding signal (z-score),GalNAc(b1-6)GalNAc,1.85
same,glycan array binding signal (z-score),GalNAc3S(b1-4)GlcNAc,1.43
same,glycan array binding signal (z-score),GalNAc3S(b1-4)GlcNAc3S,-0.384
same,glycan array binding signal (z-score),[4],-0.504
same,glycan array binding signal (z-score),GalNAc4S6S(b1-4)GlcNAc,-0.38
same,glycan array binding signal (z-score),GalNAc6S(b1-4)GlcNAc,2.51
same,glycan array binding signal (z-score),Glc(a1-4)Glc,-0.359
same,glycan array binding signal (z-score),[5],-0.23
same,glycan array binding signal (z-score),Glc(a1-6)Glc(a1-6)Glc,-0.33
same,glycan array binding signal (z-score),[6],-0.322
same,glycan array binding signal (z-score),Glc(b1-4)Glc,-0.467
same,glycan array binding signal (z-score),Glc(b1-6)Glc,-0.486
same,glycan array binding signal (z-score),GlcA(b1-3)Gal,-0.316
same,glycan array binding signal (z-score),GlcA(b1-3)GlcNAc,-0.37
same,glycan array binding signal (z-score),GlcA(b1-6)Gal,0.806
same,glycan array binding signal (z-score),[7],-0.444
same,glycan array binding signal (z-score),[8],-0.227
same,glycan array binding signal (z-score),[9],4.61
same,glycan array binding signal (z-score),[10],0.937
same,glycan array binding signal (z-score),[11],0.934
same,glycan array binding signal (z-score),[12],2.91
same,glycan array binding signal (z-score),[13],3.99
same,glycan array binding signal (z-score),[14],3.13
same,glycan array binding signal (z-score),[15],2.39
same,glycan array binding signal (z-score),[16],2.77
same,glycan array binding signal (z-score),[17],-0.469
same,glycan array binding signal (z-score),[18],1.9
same,glycan array binding signal (z-score),[19],-0.164
same,glycan array binding signal (z-score),[20],-0.195
same,glycan array binding signal (z-score),[21],4.58
same,glycan array binding signal (z-score),[22],1.8
same,glycan array binding signal (z-score),[23],0.011
same,glycan array binding signal (z-score),[24],1.86
same,glycan array binding signal (z-score),[25],1.07
same,glycan array binding signal (z-score),[26],0.174
same,glycan array binding signal (z-score),[27],-0.203
same,glycan array binding signal (z-score),[28],-0.265
same,glycan array binding signal (z-score),[29],1.77
same,glycan array binding signal (z-score),GlcNAc(b1-3)Fuc,1.21
same,glycan array binding signal (z-score),GlcNAc(b1-3)Gal,-0.331
